# Test results taken from PubChem BioAssay AID463173 (ICCB-Longwood Screening Facility, Harvard Medical School, 2010).
# Screen size: about 52,000 compounds; about 1,700 (3.3%) were called active. Rule as the data show it: active = survival mostly below about 52% (no sharp cut-off); inactive = mostly above about 56%. The list shows a part of the results.
# Tested on: Wild type
# Assay: S. aureus survival, RN4220 and DeltatarO strains – OD600, teichoic acid synthesis inhibitors, primary screen (AID 463173)
# Conditions: S. aureus RN4220 wild type/DeltatarO growth, OD600, 18 h, hits give low values, screened at 18.75 µg/mL (by protocol)
row,Compound,survival
1,CCOc1ccccc1CNC(=O)c1ccc2c(c1)N(Cc1ccc(C)cc1)CCS2,inactive: 79%
2,CC(=O)c1cccc(NC(=O)CSc2nc(=O)n(Cc3ccco3)c3c2CCC3)c1,inactive: 68%
3,Cc1oc(-c2cccc(Cl)c2)nc1CS(=O)(=O)CC(=O)NC(C)CCc1ccccc1 (stereo not drawn),inactive: 21%
4,CCCCN(CC)C(=O)c1nn(C)c2c1CSc1ccccc1-2,inactive: 108%
5,Cc1cc(C)n(C(=O)CCCC(=O)O)n1,inactive: 96%
6,CCOc1ccc(/C=C/c2nc(C#N)c(NCc3ccccc3)o2)cc1,inactive: 84%
7,C#CCNC(=O)NC1CCCN(S(=O)(=O)c2ccc(C)cc2)C1 (stereo not drawn),inactive: 112%
8,O=C(CCC1N=C2c3ccccc3N=C(SCc3ccc(F)cc3)N2C1=O)NCCc1ccccc1 (stereo not drawn),inactive: 113%
9,O=C(CSc1ccc(-c2cccs2)nn1)Nc1ccccc1C(F)(F)F,inactive: 78%
10,Cc1ccc(NC(=O)C2CCCN(C(=O)c3cnn(-c4ccc(F)cc4)c3-n3cccc3)C2)c(Cl)c1 (stereo not drawn),inactive: 72%
11,Cc1ccccc1CNC(=O)C(C)N(c1ccccc1)S(C)(=O)=O (stereo not drawn),inactive: 81%
12,O=C(NCCc1ccccc1Cl)C1CCN(c2nc3ccccc3nc2C(F)(F)F)CC1,active: 10%
13,CC1(C)O[C@H]2[C@@H](O1)[C@@H](C(=O)Nc1ccccc1C(F)(F)F)O[C@@H]1OC(C)(C)O[C@@H]12,inactive: 107%
14,COc1ccc(-n2c(-c3ccco3)nc3c(cnn3-c3ccc(Cl)cc3)c2=O)cc1,inactive: 90%
15,COc1ccc(Cl)cc1NC(=O)C(C)Sc1nc2c(c(=O)[nH]1)CCCC2 (stereo not drawn),inactive: 74%
16,COc1ccccc1NC(=O)c1c(NCc2ccc(C)o2)sc2c1CCCCC2,inactive: 73%
17,CCOC(=O)N1CCc2c(sc3c2C(=O)NC(c2cc(OC)c(OC)c(OC)c2)N3)C1 (stereo not drawn),inactive: 65%
18,O=C(Cc1ccc(Cl)cc1)N1CCOCC1,inactive: 89%
19,COc1ccc(-c2cc(C(F)(F)F)n3nc(-c4ccccc4)cc3n2)cc1OC,inactive: 84%
20,CCc1ccc(NC(=O)Cn2c(=O)n(CCC(C)C)c(=O)c3cccnc32)cc1,inactive: 86%
21,CCCc1nn2c(=O)cc(COC(=O)c3ccccc3NC(=O)COc3ccccc3)nc2s1,inactive: 87%
22,N#C/C(=C\c1cn(CC(=O)NCC2CCCO2)c2ccccc12)C(=O)NCC1CCCO1 (stereo not drawn),inactive: 92%

row,Compound,survival
1,CCOC(=O)c1cc(S(=O)(=O)Nc2cc(F)ccc2C)[nH]n1,inactive: 75%
2,CCc1ccccc1NS(=O)(=O)c1ccc2c(c1)CC(=O)N2,inactive: 116%
3,CC(=O)Nc1nonc1-c1nnc(SCc2ccccc2F)n1C,inactive: 84%
4,CC(=O)c1ccc(N2CCN(c3ncnc4c3c(-c3ccccc3)cn4-c3ccc(Cl)cc3)CC2)cc1,inactive: 65%
5,Cc1ccc(/C=C/c2onc(C)c2S(=O)(=O)N2CCC(C(=O)Nc3ccccc3C(F)(F)F)CC2)cc1,inactive: 83%
6,CCCCSc1nnc2n(-c3ccc(OC)cc3)c(=O)c3c4c(sc3n12)COC(C(C)C)C4 (stereo not drawn),inactive: 74%
7,CC(=O)c1ccc(NC(=O)c2cc(C)nc3c2c(C)nn3-c2ccc(C)cc2)cc1,inactive: 99%
8,Cc1cccc2c1N(Cc1ccccc1OCCC(C)C)C(=O)C2=O,active: 25%
9,COc1cccc(CNC(=O)Cn2nc(-c3ccc(Cl)cc3)ccc2=O)c1,inactive: 131%
10,COc1ccc2c(c1)c(=O)c(S(=O)(=O)c1ccccc1)cn2CC(=O)Nc1ccc(C)c(Cl)c1,inactive: 85%
11,CCn1c(SCCN2CCOCC2)nnc1C1CCCCC1,inactive: 122%
12,COc1ccc(-n2c(=O)c3c(c4cc(OC)ccc4n3C)n(Cc3cccc(C)c3)c2=O)cc1,inactive: 85%
13,O=C(CSc1nnc(-c2ccco2)n1CC1CCCO1)c1ccccc1 (stereo not drawn),inactive: 104%
14,CCOC(=O)c1c(C)[nH]c(C)c1S(=O)(=O)N1CCCC(C(=O)NCc2ccc(N(C)C)cc2)C1 (stereo not drawn),inactive: 71%
15,CCOC(=O)c1ccc(-c2ccc(C=C(C#N)C#N)o2)cc1,inactive: 112%
16,CC(C)CC(=O)Nc1nnc(S(=O)(=O)N(C)Cc2ccc(Cl)cc2)s1,inactive: 78%
17,COC(=O)/C(C#N)=C/c1ccc(-c2ccccc2)o1,inactive: 117%
18,CCC(C(=O)Nc1cccc(-c2nc3cccnc3s2)c1C)c1ccccc1 (stereo not drawn),inactive: 117%
19,COc1ccc(-n2cc(C(=O)NCCc3cc(OC)ccc3OC)c3ccccc3c2=O)cc1,inactive: 84%
20,CC1=C(C(=O)Nc2ccc(C)cc2C)C(c2cccs2)n2nc(SCc3cccc(C)c3)nc2N1 (stereo not drawn),inactive: 126%
21,CNC(=O)CSc1nc2cc3c(cc2cc1C)OCCO3,inactive: 110%
22,CNC(=O)CSc1cn(CC(=O)N2CCCCCC2)c2ccccc12,inactive: 107%

row,Compound,survival
1,N#Cc1c(N)nc2c(c1-c1ccccc1)CCCC2,inactive: 130%
2,CC(C)CCn1nnnc1CN1CCN(Cc2ccc3c(c2)OCO3)CC1,inactive: 100%
3,COc1ccc(OC)c(NC(=O)CN2C(=O)CC(C)Sc3ccccc32)c1 (stereo not drawn),inactive: 81%
4,O=C(CCOc1ccccc1)N(Cc1cccnc1)c1nc2ccc(Cl)cc2s1,inactive: 82%
5,CCOc1ccc(NC(=O)CSc2oc(-c3ccc(F)cc3)nc2S(=O)(=O)c2ccc(C)cc2)cc1,inactive: 89%
6,CCOC(=O)c1ccc(NC(=O)CSc2nc3cc4ccccc4cc3[nH]2)cc1,inactive: 84%
7,Cc1nc2nc(NC(=O)c3ccc(C(C)(C)C)cc3)[nH]n2c(=O)c1Cc1ccccc1,inactive: 115%
8,Clc1ccccc1-c1nnc(COc2ccccc2)o1,inactive: 75%
9,Cc1ccc(CN(Cc2ccco2)C(=O)c2oc3cc(Br)ccc3c2C)cc1,inactive: 85%
10,CC(C)CNC(=S)N1CCC(c2nc(-c3ccc(F)cc3)no2)CC1,inactive: 114%
11,COc1ccc(CNC(=O)Cn2ccc3cc(S(=O)(=O)N4CCCCC4)ccc32)cc1OC,inactive: 72%
12,CC1Cc2ccccc2N1C(=O)Cn1nnc(-c2ccccc2F)n1 (stereo not drawn),inactive: 114%
13,Cc1ccc(-n2c(=O)c3c4c(sc3n(Cc3cc(=O)n5ccccc5n3)c2=O)CCC4)cc1C,inactive: 151%
14,O=C1N(Cc2ccccc2Cl)c2ccccc2C1(O)c1c[nH]c2ccccc12 (stereo not drawn),inactive: 84%
15,CC1=C(C(=O)OCC2CCCCC2)C(c2ccc(Cl)cc2)CC(=O)N1 (stereo not drawn),inactive: 97%
16,CSc1ncc(C(=O)Nc2ccc(C)c(Cl)c2)c(-c2ccccc2)n1,inactive: 101%
17,CCOC(=O)c1cc(C)n(CC2CCC(C(=O)Nc3ccccc3OC)CC2)c1C (stereo not drawn),inactive: 94%
18,NC(=O)CN1c2cccc3cccc(c23)S1(=O)=O,inactive: 98%
19,CCc1ccc(N(CC)C(=O)Cn2nc(Cc3cccnc3)c3ccccc3c2=O)cc1,inactive: 80%
20,CCOC(=O)c1sc2ccccc2c1S(=O)(=O)Nc1ccc(C(C)=O)cc1,inactive: 90%
21,Cc1cccc(Cn2c(=O)n(Cc3ccccc3)c(=O)c3c2c2cc(C)ccc2n3C)c1,inactive: 80%
22,CC(=O)c1ccc(NS(=O)(=O)c2c(C)nc3scc(C)n3c2=O)cc1,inactive: 79%

row,Compound,survival
1,CCn1cc(C(=O)NCCc2ccc(OC)c(OC)c2)c(=O)c2cc(S(=O)(=O)N3CCCCCC3)ccc21,inactive: 130%
2,Cc1ccc2oc(-c3ccc(C)c(NC(=O)C(C)(C)Oc4ccc(Cl)cc4)c3)nc2c1,inactive: 43%
3,COc1ccccc1NC(=O)c1oc2ccccc2c1NC(=O)COc1cccc(C)c1,inactive: 85%
4,COc1ccc(Cl)cc1NC(=O)N(C)CCc1c(C)nn(C)c1C,inactive: 55%
5,Nc1c(C(=O)Nc2ccc(C(F)(F)F)cc2)sc2nc(-c3cccs3)ccc12,inactive: 89%
6,COc1ccccc1-c1nnc(C2CCN(S(=O)(=O)c3ccc(CC(C)C)cc3)CC2)o1,inactive: 51%
7,COc1cccc(-c2nc(SCc3cccc(Br)c3)n3[nH]c(=O)cc3n2)c1,inactive: 101%
8,O=C(CCc1ccccc1)NCc1ccc2c(c1)CCN2C(=O)c1ccccc1,inactive: 64%
9,CC(=O)N1CCc2c(sc3c2c(=O)n(CCc2ccccc2)c(=O)n3CC(=O)Nc2ccccc2F)C1,inactive: 78%
10,COc1ccccc1NC(=O)c1oc2ccccc2c1NC(=O)Cc1cccs1,inactive: 71%
11,Cn1cc(C(=O)O)c(=O)c2cc(S(=O)(=O)N3CCOCC3)ccc21,inactive: 76%
12,COc1ccccc1N1CCN(c2ccc(=O)n(CC(=O)Nc3cc(F)ccc3C)n2)CC1,inactive: 77%
13,CCOC(=O)c1cc(=O)n2[nH]c(-c3ccc(C)cc3)cc2n1,inactive: 107%
14,COc1cc2c(cc1OC)C(c1ccc(Cl)cc1)N(c1cccc(C#N)c1)C(=O)C2 (stereo not drawn),inactive: 82%
15,COc1ccc(-n2c(SCC(=O)c3ccc(Cl)cc3)nc3c([nH]c4ccccc43)c2=O)cc1,inactive: 73%
16,COc1cccc(NC(=O)Cn2c(=O)n(-c3ccccc3)c(=O)c3ccc(C(=O)NCc4ccc5c(c4)OCO5)cc32)c1,inactive: 120%
17,Cn1cc(S(=O)(=O)N2CCCCCC2)cc1C(=O)N1CCN(c2ccccc2F)CC1,inactive: 68%
18,COc1ccc(CCNc2ncnc3onc(-c4ccc(Cl)cc4)c23)c(OC)c1,inactive: 75%
19,CCc1ccc(NC(=O)CN2C(=O)C3CCCN3c3ccc(S(=O)(=O)N(CC)CC)cc32)cc1 (stereo not drawn),inactive: 129%
20,Cc1ccccc1Nc1sc(C(=O)c2ccccc2)c(N)c1S(C)(=O)=O,inactive: 96%
21,Cc1c(CC(=O)N2CCCCC2)c(=O)oc2cc(O)ccc12,inactive: 81%
22,Cc1ccc(N(CC(O)Cn2c3ccccc3c3ccccc32)S(=O)(=O)c2ccc(F)cc2)cc1 (stereo not drawn),inactive: 92%
